Hit rate of the full screen: of about 420,000 compounds, about 50,000 (12%) were called active. The inconclusive results got no clear call from the source; some entries with a clear call stand among them for comparison. Calls come from the whole dose curve; as a rule, active = well fitted inhibition curve with a large enough effect; inconclusive = small, poorly fitted or top-dose-only effect; inactive = flat fitted curve, though single readings scatter. No potency is given beside an inconclusive call; the fits are too rough.
Experiment: qHTS for Inhibitors of human tyrosyl-DNA phosphodiesterase 1 (TDP1): qHTS in cells in presence of CPT; note: nearly all actives have a fitted effect of over 55% in size
Settings: chicken DT40 Tdp1-/-;hTDP1 cells + 20 nM CPT, ATP luminescence, 48 h; activity change, negative = growth inhibition: at 46.2 µM (top of the series) unless noted
Summary of the method: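 Chicken DT40 Tdp1-/- cells complemented with human TDP1, 400 cells/well, exposed to compounds plus 20 nM camptothecin for at least 48 h at 37 C; viability read as ATP content by CellTiter-Glo luminescence.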
% is set by controls: 0 for no effect and ±100 for the full control effect; potency is the fitted concentration of half-maximal effect; tags give direction and shape of the fitted curve.

| SMILES | Potency | activity change, negative = growth inhibition |
| --- | --- | --- |
| COc1ccc(OCCCC(=O)NCCc2nc3ccccc3[nH]2)cc1 | inactive |  |
| Cc1ccc(NC(=O)c2cc(-c3cccs3)on2)cc1 | inconclusive [inhibitor, single point] |  |
| O=C(COc1ccccc1[N+](=O)[O-])Nc1cccc(C(=O)Nc2ccccc2C(=O)O)c1 | inconclusive [inhibitor, single point] |  |
| CC1(C)Cc2c(cnn2-c2cccc(F)c2)C(NC(=O)CN2CCCC2=O)C1 (stereo not drawn) | inactive |  |
| Cc1oc2c(c1C(=O)c1ccccc1)C(=O)C(=O)c1ccccc1-2 | active: 1.16 µM |  |
| Cc1noc(C)c1C(=O)N1CCCC(Nc2ccc(C(C)C)cc2)C1 (stereo not drawn) |  | inconclusive: -17.9% [inhibitor] |
| COc1cc(OC)cc(-c2c(-c3cccs3)c3cc(-c4cnc(OC)nc4)ccc3n2C)c1 | inconclusive [inhibitor, single point] |  |
| Cc1cccc(N2CCN(C(=S)c3ccc(-c4ccccc4[N+](=O)[O-])o3)CC2)c1 | inconclusive [inhibitor, single point] |  |
| O=C(NCc1ccc(Cl)cc1Cl)c1cccc(N2CCCS2(=O)=O)c1 | active: 16.4 µM |  |
| COc1[nH]c(/N=C/c2ccccc2)c(C#N)c1C#N | inconclusive [inhibitor, single point] |  |
| Cc1ccc(S(=O)(=O)N2CCOCC2)cc1C(=O)OCC(=O)NC1CC1 | inactive |  |
| Cc1ccc2cc(NC(=O)c3ccccc3)ccc2n1 | inactive |  |
| O=C(NCc1ccccc1Cl)C1=CC=CN2CCS(=O)(=O)N=C12 | inactive |  |
| COc1ccc(-c2cc(C(=O)Nc3cnn(Cc4ccc(F)cc4)c3)no2)cc1OC | inactive |  |
| CN(CC(=O)Nc1ccccc1Cl)C(=O)COC(=O)C1=COCCO1 | inactive |  |
| COc1ccc(CCn2c(C)cc(C(=O)CCl)c2C)cc1OC | active: 6.51 µM |  |
| O=C(NNC(=O)c1ccco1)c1cccc([N+](=O)[O-])c1 | inactive |  |
| CC(C)(C)OC(=O)C[C@@H]1C/C=C\C[C@@H](CC(=O)NCCO)C(=O)N[C@H](C(C)(C)C)COC1=O | inactive |  |
| CCn1c(CC(=O)Nc2ccccc2)nnc1SCC(=O)NC1CCCC1 | inactive |  |
| COc1ccc(CCCNC(=O)C2Cc3c(-c4ccc(NC(C)=O)cc4)ccnc3O2)cc1 (stereo not drawn) | active: 16.4 µM |  |
| CCCCOCCCN1CC(=O)N2C(C)c3[nH]c4ccccc4c3C[C@H]2C1=O (stereo partly drawn) | inconclusive [inhibitor, single point] |  |
| CCN(CC)c1ccc(C(=O)OCC(=O)NC2CCCCC2C)cc1 (stereo not drawn) | active: 20.6 µM |  |
| COc1ccc(-n2ccnc2SCC(=O)NO)cc1 |  | inconclusive: -30.2% [inhibitor] |
| c1ccc2[nH]c(CSc3nnc(-c4ccncc4)o3)nc2c1 | inconclusive [inhibitor, single point] |  |

| SMILES | Potency | activity change, negative = growth inhibition |
| --- | --- | --- |
| C=CCn1c(SCC(=O)NCc2ccccc2)nnc1-c1cc(Br)ccc1O |  | inconclusive: -30.8% [inhibitor] |
| CC(C)(C)NC(=O)C(c1ccc(-c2ccccc2)cc1)N(C[C@H]1CC[C@@H]([C@@H]2CC[C@H](CO)O2)O1)C(=O)c1cccc(Cl)c1 (stereo partly drawn) | inconclusive [inhibitor, single point] |  |
| CCn1nc2cc(C(=O)NCc3cc(C(F)(F)F)cc(C(F)(F)F)c3)ccc2c1OC | inactive |  |
| Cc1cc(C(=O)N2CCCC(N3CCN(c4cccc(C(F)(F)F)c4)CC3)C2)no1 (stereo not drawn) | inconclusive [inhibitor, single point] |  |
| CCc1ccccc1NC(=O)CSc1nc2c(c(=O)[nH]1)CN(Cc1ccccc1OC)CC2 | inconclusive [inhibitor, single point] |  |
| N#CC1=C(N)N2C(=C(C#N)C13CCN(Cc1ccccc1)CC3)Nc1ccccc12 | inactive |  |
| Cc1cc[n+]2cc(-c3cccc([N+](=O)[O-])c3)c(-c3cccc([N+](=O)[O-])c3)cc2c1 | inactive |  |
| CNc1nc(Cl)c(SC)c(NC2CCCCC2)n1 | inconclusive [inhibitor, single point] |  |
| COc1ccccc1C/C(N)=N/OC(=O)c1cccc([N+](=O)[O-])c1C | inconclusive [inhibitor, partial curve, poor fit] |  |
| COc1cc2c(cc1NC(=O)C(C)Oc1ccccc1)oc1ccccc12 (stereo not drawn) | active: 14.6 µM |  |
| Fc1ccc(-c2nc3c4ccccc4ccn3c2Cc2ccsc2)cc1 | active: 14.6 µM |  |
| Cc1ccc(S(=O)(=O)CCC(=O)OCC(=O)N(C)Cc2ccccc2)cc1 | inconclusive [inhibitor, single point] |  |
| Cc1cccc(-n2nc3c(c2NC(=O)c2cc4ccccc4o2)CS(=O)(=O)C3)c1 | inactive |  |
| O=C(NCCC1CCCCN1S(=O)(=O)c1cccs1)C(=O)Nc1cccc(F)c1 (stereo not drawn) | active: 23.1 µM |  |
| NCc1nc(-c2ccc(Cl)cc2)no1 | inconclusive [inhibitor, single point] |  |
| CS(=O)(=O)c1ccc(C(=O)OC2CCOC2=O)cc1[N+](=O)[O-] (stereo not drawn) | inconclusive [inhibitor, single point] |  |
| COc1ccc(C)cc1NC(=O)CCN1CCN(C/C=C/c2ccccc2)CC1 | inconclusive [inhibitor, single point] |  |
| Oc1ccc(C[C@H]2CNCCN2CC2(c3ccccc3)CC2)cc1 | active: 20.6 µM |  |
| Cc1ccc(C)c(Cn2c(=O)n(CCCC(=O)NCc3ccc4c(c3)OCO4)c(=O)c3sccc32)c1 | inconclusive [inhibitor, single point] |  |
| Nc1ccc(-n2nncc2-c2ccco2)cc1 | inactive |  |
| O=C(CCN1CCCCC1)N1CCc2c([nH]c3ccccc23)C1c1cccnc1 (stereo not drawn) | inactive |  |
| O=C(C[C@H]1C/C=C\C[C@H](NC(=O)OCC2c3ccccc3-c3ccccc32)C(=O)OC[C@@H]2CCCN2C1=O)N[C@H](CO)Cc1ccccc1 | active: 10.3 µM |  |
| COc1ccc(OC)c(NC(=O)COCc2cc(-c3ccc(F)cc3)on2)c1 | active: 18.4 µM |  |
| COc1cc(/C=C(/C#N)c2nc3ccccc3[nH]2)ccc1Oc1ncccc1[N+](=O)[O-] | inconclusive [inhibitor, full curve] |  |
